This is one part of the list. Many values rest on one well or one pass, so single values are uncertain.
Legend:
Assay in all cases: cell count relative to DMSO control; melanoma cells; higher = more viable cells
Conditions in all cases: library dose: low library concentration; 72 h
MZ2-MEL = system: MZ2-MEL
MeWo = system: MeWo
RPMI7951 = system: RPMI7951
RVH-421 = system: RVH-421
SkMel28 = system: SkMel28
SkMel2 = system: SkMel2
SkMel30 = system: SkMel30
UACC62 = system: UACC62
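Note: cell number obtained by counting DAPI-stained nuclei in high-throughput microscope images with image analysis software, screen run in 1,536-well plates.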

Structure (SMILES) | cell count (MZ2-MEL) | cell count (MeWo) | cell count (RPMI7951) | cell count (RVH-421) | cell count (SkMel28) | cell count (SkMel2) | cell count (SkMel30) | cell count (UACC62)
N.N.[Cl][Pt][Cl] [cisplatin] + COc1ccc(Cl)c(Nc2nc3ccccc3nc2NS(=O)(=O)c2cccc(NC(=O)C(C)(C)N)c2)c1 [XL147] (first compound 1.6 µM, partner dose 0.8 µM) | 106% | 86% | 110% | 97% | 110% | 99.7% | 123% | 95.2%
Cn1cc(C2=C(c3cn(C4CCN(Cc5ccccn5)CC4)c4ccccc34)C(=O)NC2=O)c2ccccc21 [Enzastaurin] + C[C@]1(O)C[C@@H](c2nc(-c3ccc4ccc(-c5ccccc5)nc4c3)c3c(N)nccn32)C1 [OSI906] (first compound 0.8 µM, partner dose 0.4 µM) | 103% | 106% | 94.7% | 47.6% | 98.3% | 100% | 107% | 97.6%
Cn1cc(C2=C(c3cn(C4CCN(Cc5ccccn5)CC4)c4ccccc34)C(=O)NC2=O)c2ccccc21 [Enzastaurin] + Clc1ccc(Nc2nnc(Cc3ccncc3)c3ccccc23)cc1 [vatalanib] (first compound 0.8 µM, partner dose 2 µM) | 91.8% | 101% | 96.4% | 72.9% | 101% | 91.5% | 102% | 85.7%
N.N.[Cl][Pt][Cl] [cisplatin] + CS(=O)(=O)CCNCc1ccc(-c2ccc3ncnc(Nc4ccc(OCc5cccc(F)c5)c(Cl)c4)c3c2)o1 [lapatinib] (first compound 1.6 µM, partner dose 0.8 µM) | 108% | 103% | 79.8% | 93.7% | 108% | 119% | 92.8% | 115%
N.N.[Cl][Pt][Cl] [cisplatin] + CC(=O)c1c(C)c2cnc(Nc3ccc(N4CCNCC4)cn3)nc2n(C2CCCC2)c1=O [palbociclib] (first compound 1.6 µM, partner dose 0.04 µM) | 103% | 85.5% | 88.1% | 99.4% | 88.9% | 95.5% | 86.5% | 81.3%
Cn1cc(C2=C(c3cn(C4CCN(Cc5ccccn5)CC4)c4ccccc34)C(=O)NC2=O)c2ccccc21 [Enzastaurin] + Cn1nnc2c(C(N)=O)ncn2c1=O [temozolomide] (first compound 0.8 µM, partner dose 2 µM) | 96.6% | 121% | 63.6% | 88.4% | 88.3% | 95.4% | 107% | 73.2%
C[As](C)SC[C@H](NC(=O)CC[C@H](N)C(=O)O)C(=O)NCC(=O)O [Darinaparsin] + Nc1cccc2c1CN(C1CCC(=O)NC1=O)C2=O [lenalidomide] (first compound 0.4 µM, partner dose 1 µM) | 103% | 79.1% | 86.3% | 82.5% | 97.9% | 102% | 98.5% | 85.2%
Cn1cc(C2=C(c3cn(C4CCN(Cc5ccccn5)CC4)c4ccccc34)C(=O)NC2=O)c2ccccc21 [Enzastaurin] + CCN(CC)CCNC(=O)c1c(C)[nH]c(/C=C2\C(=O)Nc3ccc(F)cc32)c1C [sunitinib] (first compound 0.8 µM, partner dose 0.4 µM) | 96.4% | 101% | 91.4% | 90.2% | 119% | 93.5% | 95.7% | 107%
Cn1cc(C2=C(c3cn(C4CCN(Cc5ccccn5)CC4)c4ccccc34)C(=O)NC2=O)c2ccccc21 [Enzastaurin] + CC(=O)c1c(C)c2cnc(Nc3ccc(N4CCNCC4)cn3)nc2n(C2CCCC2)c1=O [palbociclib] (first compound 0.8 µM, partner dose 0.04 µM) | 89.5% | 86.7% | 67.6% | 62.8% | 69.8% | 98.7% | 87.1% | 98.8%
N.N.[Cl][Pt][Cl] [cisplatin] + C[As](C)SC[C@H](NC(=O)CC[C@H](N)C(=O)O)C(=O)NCC(=O)O [Darinaparsin] (first compound 1.6 µM, partner dose 0.4 µM) | 102% | 92.9% | 98.6% | 106% | 101% | 104% | 99.4% | 97.4%
Cn1cc(C2=C(c3cn(C4CCN(Cc5ccccn5)CC4)c4ccccc34)C(=O)NC2=O)c2ccccc21 [Enzastaurin] + C[C@]1(c2nc3c(C(N)=O)cccc3[nH]2)CCCN1 [Veliparib] (first compound 0.8 µM, partner dose 1.4 µM) | 93.1% | 110% | 91.1% | 110% | 84.4% | 105% | 122% | 84.4%
Cn1cc(C2=C(c3cn(C4CCN(Cc5ccccn5)CC4)c4ccccc34)C(=O)NC2=O)c2ccccc21 [Enzastaurin] + OCc1c[nH]c2ccccc12 [Indole-3-carbinol] (first compound 0.8 µM, partner dose 0.8 µM) | 97.4% | 126% | 91% | 77.3% | 90.5% | 103% | 105% | 105%
N.N.[Cl][Pt][Cl] [cisplatin] + Clc1ccc(Nc2nnc(Cc3ccncc3)c3ccccc23)cc1 [vatalanib] (first compound 1.6 µM, partner dose 2 µM) | 107% | 80.2% | 82.3% | 81% | 98.8% | 100% | 105% | 98.6%
Cn1cc(C2=C(c3cn(C4CCN(Cc5ccccn5)CC4)c4ccccc34)C(=O)NC2=O)c2ccccc21 [Enzastaurin] + CNC(=O)c1cc(Oc2ccc(NC(=O)Nc3ccc(Cl)c(C(F)(F)F)c3)cc2)ccn1 [sorafenib] (first compound 0.8 µM, partner dose 0.4 µM) | 79.7% | 103% | 78.5% | 67.5% | 87.3% | 94.1% | 115% | 89.7%
Cn1cc(C2=C(c3cn(C4CCN(Cc5ccccn5)CC4)c4ccccc34)C(=O)NC2=O)c2ccccc21 [Enzastaurin] + Nc1nc(F)nc2c1ncn2[C@@H]1O[C@H](CO)[C@@H](O)[C@@H]1O [fludarabine] (first compound 0.8 µM, partner dose 0.2 µM) | 116% | 40.4% | 101% | 78.2% | 98.5% | 7.91% | 26.5% | 94%
Cn1cc(C2=C(c3cn(C4CCN(Cc5ccccn5)CC4)c4ccccc34)C(=O)NC2=O)c2ccccc21 [Enzastaurin] + Cn1c(=O)n(-c2ccc(C(C)(C)C#N)cc2)c2c3cc(-c4cnc5ccccc5c4)ccc3ncc21 [NVP-BEZ235] (first compound 0.8 µM, partner dose 0.004 µM) | 104% | 113% | 87.7% | 142% | 115% | 112% | 78.7% | 109%
N.N.[Cl][Pt][Cl] [cisplatin] + CNC(=O)c1cc(Oc2ccc(NC(=O)Nc3ccc(Cl)c(C(F)(F)F)c3)cc2)ccn1 [sorafenib] (first compound 1.6 µM, partner dose 0.4 µM) | 87.2% | 83.7% | 86.7% | 76% | 92% | 96.9% | 75.8% | 102%
Cn1cc(C2=C(c3cn(C4CCN(Cc5ccccn5)CC4)c4ccccc34)C(=O)NC2=O)c2ccccc21 [Enzastaurin] + C=CCNC1=C2C[C@@H](C)C[C@H](OC)[C@H](O)[C@@H](C)/C=C(\C)[C@H](OC(N)=O)[C@@H](OC)/C=C\C=C(/C)C(=O)NC(=CC1=O)C2=O [Tanespimycin] (first compound 0.8 µM, partner dose 0.002 µM) | 94.8% | 121% | 97% | 61.5% | 83.3% | 99% | 89.5% | 92%
N.N.[Cl][Pt][Cl] [cisplatin] + CN1CCN(c2ccc3nc(-c4c(N)c5c(F)cccc5[nH]c4=O)[nH]c3c2)CC1 [Dovitinib] (first compound 1.6 µM, partner dose 0.1 µM) | 106% | 98.7% | 92.9% | 86.5% | 99.9% | 96.8% | 105% | 90.7%
Cn1cc(C2=C(c3cn(C4CCN(Cc5ccccn5)CC4)c4ccccc34)C(=O)NC2=O)c2ccccc21 [Enzastaurin] + CS(=O)(=O)CCNCc1ccc(-c2ccc3ncnc(Nc4ccc(OCc5cccc(F)c5)c(Cl)c4)c3c2)o1 [lapatinib] (first compound 0.8 µM, partner dose 0.8 µM) | 94.7% | 117% | 74.9% | 64.5% | 88.7% | 98.8% | 86.8% | 97.1%
N.N.[Cl][Pt][Cl] [cisplatin] + C[C@]1(c2nc3c(C(N)=O)cccc3[nH]2)CCCN1 [Veliparib] (first compound 1.6 µM, partner dose 1.4 µM) | 93% | 82.6% | 97.2% | 104% | 83.4% | 92.7% | 102% | 85.8%
Cn1cc(C2=C(c3cn(C4CCN(Cc5ccccn5)CC4)c4ccccc34)C(=O)NC2=O)c2ccccc21 [Enzastaurin] + COc1ccc(C2=N[C@@H](c3ccc(Cl)cc3)[C@@H](c3ccc(Cl)cc3)N2C(=O)N2CCNC(=O)C2)c(OC(C)C)c1 [Nutlin-3] (first compound 0.8 µM, partner dose 0.1 µM) | 96.7% | 106% | 88.8% | 93.8% | 102% | 111% | 121% | 106%
Cn1cc(C2=C(c3cn(C4CCN(Cc5ccccn5)CC4)c4ccccc34)C(=O)NC2=O)c2ccccc21 [Enzastaurin] + CCCS(=O)(=O)Nc1ccc(F)c(C(=O)c2c[nH]c3ncc(Cl)cc23)c1F [PLX4720] (first compound 0.8 µM, partner dose 0.08 µM) | 81.4% | 129% | 90.4% | 76.5% | 119% | 92.7% | 118% | 74%
N.N.[Cl][Pt][Cl] [cisplatin] + Cn1nnc2c(C(N)=O)ncn2c1=O [temozolomide] (first compound 1.6 µM, partner dose 2 µM) | 92.8% | 106% | 109% | 88.8% | 77.2% | 98% | 93.6% | 79.9%
